Data published in publication PMC4336329 (PLoS ONE, 2015).
Out of some 310,000 compounds screened, about 14,000 (4.5%) showed an effect of 50% or more. Effects have a minus sign here. Some of the results follow.

What follows are compounds tested against human ether-à-go-go-related gene (hERG) potassium channel (human, UniProt Q12809) (assay: primary screen, population patch clamp on CHO cells stably expressing hERG).
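Also: peak tail current of the secondary pulse compared with the same well before compound.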

Chain of human ether-à-go-go-related gene (hERG) potassium channel (Q12809 whole entry, looked up): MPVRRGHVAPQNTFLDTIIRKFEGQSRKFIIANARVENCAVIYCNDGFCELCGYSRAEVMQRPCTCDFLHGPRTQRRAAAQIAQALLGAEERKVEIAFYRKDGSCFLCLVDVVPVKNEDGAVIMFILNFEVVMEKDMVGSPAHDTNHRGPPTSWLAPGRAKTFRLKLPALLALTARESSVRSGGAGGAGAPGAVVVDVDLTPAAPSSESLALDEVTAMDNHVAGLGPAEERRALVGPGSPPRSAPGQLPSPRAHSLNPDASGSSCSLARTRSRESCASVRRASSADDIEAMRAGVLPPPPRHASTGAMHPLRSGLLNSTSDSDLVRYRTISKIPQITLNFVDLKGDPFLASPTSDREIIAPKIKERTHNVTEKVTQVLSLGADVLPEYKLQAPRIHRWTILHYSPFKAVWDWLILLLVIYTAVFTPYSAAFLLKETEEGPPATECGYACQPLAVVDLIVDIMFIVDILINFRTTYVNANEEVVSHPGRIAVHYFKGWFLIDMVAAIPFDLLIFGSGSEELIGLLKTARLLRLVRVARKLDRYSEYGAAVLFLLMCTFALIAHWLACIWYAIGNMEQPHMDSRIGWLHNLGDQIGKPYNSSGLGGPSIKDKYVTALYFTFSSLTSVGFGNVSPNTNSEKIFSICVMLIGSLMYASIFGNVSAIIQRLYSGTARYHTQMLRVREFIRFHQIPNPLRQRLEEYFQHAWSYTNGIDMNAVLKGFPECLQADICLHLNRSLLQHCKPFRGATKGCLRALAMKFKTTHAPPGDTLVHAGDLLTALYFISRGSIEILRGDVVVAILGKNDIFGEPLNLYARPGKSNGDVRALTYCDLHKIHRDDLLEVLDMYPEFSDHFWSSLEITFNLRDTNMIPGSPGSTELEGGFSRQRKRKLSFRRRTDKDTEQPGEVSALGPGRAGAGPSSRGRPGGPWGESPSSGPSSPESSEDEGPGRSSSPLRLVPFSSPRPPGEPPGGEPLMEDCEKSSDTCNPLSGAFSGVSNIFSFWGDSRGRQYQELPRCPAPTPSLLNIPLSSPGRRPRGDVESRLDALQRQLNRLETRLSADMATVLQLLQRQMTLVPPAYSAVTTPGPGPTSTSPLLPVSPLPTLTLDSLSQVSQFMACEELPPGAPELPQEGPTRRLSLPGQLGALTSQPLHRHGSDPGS

| Compound | hERG current change (%, negative = inhibition) at 10uM [%] |
| --- | --- |
| CSC1=C(C#N)C(=O)NC(c2ccccc2O)S1 (stereo not shown) | 15.5 |
| CCOC(=O)c1ccc(NC(=O)Cn2nnc(-c3ccccc3C)n2)cc1 | 2.76 |
| CC(Sc1n[nH]c(=O)[nH]c1=O)C(=O)OCc1ccccc1 (stereo not shown) | -1.04 |
| COc1ccccc1N1CCN(C(=O)CCCC2=NS(=O)(=O)c3ccccc3N2)CC1 | 2.62 |
| CCC(=O)NNC(=O)CCC(=O)Nc1ccc(C)cc1C | 19.5 |
| CCOc1ccc(NC(=O)CCN2CCN(C)CC2)cc1 | 6.35 |
| CCOc1cc(C(=O)N2CCOCC2)ccc1OCc1ccccc1 | 10.9 |
| COc1cc2c(cc1OC)C(c1cccc([N+](=O)[O-])c1)=NCC2 | 1.22 |
| O=C1c2ccccc2C(=O)N1Cc1nc2ccccc2c(=O)n1-c1ccccn1 | 3.43 |
| Cc1ccc(CNC(=O)c2ccc(N3CCC4(CC3)CC(c3cccc(Br)c3)=NO4)c(NC(=O)c3ccco3)c2)cc1 | 9.37 |
| CC(C)(C)c1ccc(NC(=O)C2=CC=CN3CCS(=O)(=O)N=C23)cc1 | -20.8 |
| COc1ccc(Oc2c(Cl)cnn(-c3ccc(Cl)c(Cl)c3)c2=O)cc1 | -1.78 |
| O=C(O)c1ccc(Cn2cc(/C=C\[N+](=O)[O-])c3ccccc32)o1 | 26.1 |
| COc1cccc(CN2CCCC(CNC(=O)c3ccc(F)cc3)C2)c1OC (stereo not shown) | -49.1 |
| COCCn1c(C)cc(C(=O)COC(=O)c2cncc(Br)c2)c1C | -31.3 |
| O=C(O)C1CC=CCC1C(=O)NNS(=O)(=O)c1ccccc1 (stereo not shown) | 11.5 |
| CCOC(=O)/C=c1\s/c(=C\c2ccc(C)cc2)c(=O)n1CC(=O)NCc1ccco1 | 11.7 |
| O=C(NCCc1c[nH]c2ccccc12)C(=O)c1c[nH]c2ccccc12 | 4.25 |
| Cc1ccc2c(c1)NC(=O)c1cc([N+](=O)[O-])ccc1O2 | 26.1 |
| N#Cc1ccc(Cl)cc1NC(=O)COC(=O)c1ccc(S(=O)(=O)N2CCCC2)cc1 | 0.0498 |
| Cc1cccc(C)c1NC(=O)Cn1nc(C)n2cccc2c1=O | 1.19 |
| COC(=O)c1c(NC(=O)COC(=O)[C@@H](NS(=O)(=O)c2ccccc2)C(C)C)sc2c1CCC2 | 0.637 |

| Compound | hERG current change (%, negative = inhibition) at 10uM [%] |
| --- | --- |
| Cc1cc(NC(=O)COC(=O)[C@H](C)NC(=O)c2ccccc2)no1 | 7.21 |
| Cn1ncc(Br)c1C(=O)OCC(=O)Nc1nc(-c2ccccc2)cs1 | 9.93 |
| COc1ccc(CNC(=O)CCC(=O)N2C[C@H]3C[C@H](C2)c2cccc(=O)n2C3)cc1 | 3.43 |
| CC(c1ccccc1)n1c(SCC(=O)Nc2ccccc2)n[nH]c1=O (stereo not shown) | 8.88 |
| O=C(NCCN1CCc2ccccc2C1)C1CC(=O)N(C2CCCC2)C1 (stereo not shown) | 7.08 |
| Cc1ccccc1NS(=O)(=O)c1cc(S(C)(=O)=O)ccc1Cl | -5.25 |
| COc1ccccc1C(=O)Nc1ccnn1C1CCN(C)CC1 | -32.7 |
| COCCCn1c(SCC(=O)Nc2ccccc2F)nnc1-c1ccoc1C | 15.7 |
| COC(=O)c1ccc(C2NC(=O)c3ccccc3O2)cc1 (stereo not shown) | 15.9 |
| O=C(NCc1ccccc1)c1onc(CSc2ccc(Cl)cc2)c1C(=O)NCC1CC1 | 3.93 |
| CN(C)C(=O)N1CCC(C(=O)NCC2CCCO2)CC1 (stereo not shown) | 7.74 |
| O=S(=O)(Nc1ccncc1)c1ccc(Cl)c(Cl)c1 | 18.4 |
| CCOC(=O)CCc1c(C)nc(SCC(=O)O)c(C#N)c1C | -2.59 |
| CCOC(=O)/C(=N\Nc1ccccc1Cl)N(C)C1CCS(=O)(=O)C1 (stereo not shown) | -15.9 |
| CCOc1ccc(/C=C2\SC(N3CCc4ccccc4C3)=NC2=O)cc1 | 4.69 |
| O=C(NC(=S)NC(=O)c1ccccc1F)c1ccccc1F | 0.534 |
| O=C(Cc1ccccc1)Nn1cnc2ccccc21 | -0.197 |
| COc1cccc(-c2nc3n(n2)C(c2ccccc2Cl)C(C(N)=O)=C(C)N3)c1 (stereo not shown) | -11.4 |
| CCOC(=O)C1(C(C)(C)CC)CC(CSc2nc3ccccc3[nH]2)OC1=O.Cl (stereo not shown) | -36.6 |
| Cc1ccc(C(=O)NNc2c3ccccc3nc3ccccc23)cc1 | 9.56 |
| COc1ccc(NC2SC(=O)N(C)C2=O)cc1 (stereo not shown) | 1.36 |
| CN1CCN(CCCCOc2ccccc2-c2ccccc2)CC1.O=C(O)C(=O)O | -38.2 |

| Compound | hERG current change (%, negative = inhibition) at 10uM [%] |
| --- | --- |
| COc1ccc(CNc2ccccc2SC)cc1OC | 0.625 |
| Cc1c(CCO)c(=O)[nH]n1C(=O)c1c(F)cccc1F | -1.76 |
| COc1ccc(NC(=O)COc2cccnc2[N+](=O)[O-])cc1OC | 9.27 |
| Cc1ccccc1-c1nnn(CC(=O)c2ccc(S(=O)(=O)N3CCCC3)cc2)n1 | 14.5 |
| COC(=O)C(C)N1CCC(=O)c2ccccc2S1(=O)=O (stereo not shown) | 14.9 |
| COc1cccc(/C=C2\SC(=S)N(CCC(=O)NC3C=CS(=O)(=O)C3)C2=O)c1 (stereo not shown) | 6.17 |
| CCNCCNC(=O)c1c(O)c2ccccc2n(CC)c1=O.Cl | 1.76 |
| O=C(c1cc(Br)c[nH]1)N1CCCCC1 | 17.1 |
| O=C(NC1CC1)C1CC(=O)N(c2ccc(F)cc2)C1 (stereo not shown) | 19.1 |
| CCCn1c(SCC(=O)N2c3ccc(F)cc3CCC2C)nnc1-c1ccccn1 (stereo not shown) | -14.7 |
| NC(N)=NC(N)=Nc1ccc2ccccc2c1 | 17.7 |
| Cc1nc2n(c(=O)c1CCN1CCC(c3noc4cc(F)ccc34)CC1)CCCC2 | -68 |
| COc1ccc(Cc2nnc(NC(=O)c3cccc(F)c3)s2)cc1OC | 10.1 |
| O=C(Nc1ccccc1CC[N+](=O)[O-])N1CCN(c2ccccc2)CC1 | 2.62 |
| Cc1nc2cc(C(=O)N3CCC4(CC3)OCCO4)ccc2n1-c1ccc(Br)cc1 | -26.9 |
| O=C(c1cccc2cccc(O)c12)N1CCCCC1 | -6.31 |
| COc1ccc(NC(=O)c2ccccc2OCc2c(C)noc2C)cc1OC | -37.5 |
| Cc1nn(-c2ccccc2)c2c1C(=O)N(Cc1ccccc1)C(=O)C(C)(C)C2 | -15.2 |
| CCOc1ccc(NC(=O)CSc2nnc(C3CC3)n2N)cc1 | 8.79 |
| COc1cc(CN2CCC(C(=O)N3CCC(C)CC3)CC2)cc(Br)c1O.O=C(O)C(=O)O | -35.9 |
| O=C(OCc1nnc(-c2ccccc2)o1)c1ccc2c(c1)OCCO2 | -8.29 |
| COC(=O)C1=C(C)NC(C)=C(C(=O)OC)C1C(=O)OCC(=O)c1ccc(Br)cc1 | -30.3 |

| Compound | hERG current change (%, negative = inhibition) at 10uM [%] |
| --- | --- |
| CS(=O)(=O)N(CC(=O)Nc1cccnc1)c1ccc2c(c1)OCO2 | 2.43 |
| O=c1c2[nH]cnc2n(-c2cccc(F)c2)c(=O)n1Cc1ccccc1 | -10.3 |
| Cc1cc(C)n2nc(SCc3ccccc3F)nc2n1 | 6.67 |
| CCOc1ccc(N2C(=O)CC(NCC#N)C2=O)cc1 (stereo not shown) | 15.8 |
| O=C1C(=O)N(CCN2CCOCC2)C(c2cccnc2)/C1=C(/O)c1ccc(Cl)cc1 (stereo not shown) | 18.6 |
| O=C(Nc1ccccc1Cl)NC1(C(=O)NCc2cccnc2)CCCCC1 | 15.8 |
| O=C(Nc1ccc(F)cc1)c1cccnc1NCCc1ccccc1 | -13.3 |
| N#CCCn1cc(C(N)=O)c(-c2cccs2)n1 | 20.5 |
| COc1ccc(CCn2ccc(O)c(Cc3ccc(Cl)cc3)c2=O)cc1OC | 10.3 |
| CN(C)C(=O)CSc1nnc(-c2cc(-c3cccs3)nc3ccccc23)o1 | -1.64 |
| O=C(N/N=C/C(Br)=C/c1ccccc1)c1ccccc1[N+](=O)[O-] | 13.8 |
| COc1ccc2[nH]c(CN3CCN(CC(C)C)C(CCO)C3)c(C)c2c1 (stereo not shown) | 5.18 |
| CCN1C(=O)C(CC(=O)Nc2ccc(F)cc2)N(CCc2ccc(OC)cc2)C1=S (stereo not shown) | -0.637 |
| COc1cc(OC)c(OC)cc1/C=N/NC(=O)CC1C(=O)NN=C1C (stereo not shown) | 1.16 |
| Cc1cc(C)n2c(SCC(=O)Nc3ccc(F)cc3)nnc2n1 | 9.45 |
| COc1cc(NC(=O)CN2CCN(c3ccccc3O)CC2)c(C)cc1[N+](=O)[O-] | 18.5 |
| Cc1cc(Cc2ccc([N+](=O)[O-])cc2)c(C)cn1 | -57.8 |
| COc1ccccc1-n1c(SC(C)C(=O)NCC2CCCO2)nc2cc(Cl)ccc2c1=O (stereo not shown) | 0.554 |
| Cc1nonc1NC(=O)CSc1nc(CCC2CCCC2)nc2ccccc12 | 3.64 |
| O=[N+]([O-])c1ccc(N=Cc2sc3ccccc3c2O)cc1 | 15.3 |
| Fc1ccc(CSc2ncnc3c2oc2ccccc23)cc1 | 0.614 |
| COc1cccc(-c2c(C(=O)N/N=C/C3CC=CCC3)nnn2-c2nonc2N)c1 (stereo not shown) | 2.44 |
